Laboratory results: the DeepSol protein solubility set

Assay: soluble on expression in E. coli; label from the status in PepcDB or PDB records

| Sequence | soluble on expression in E. coli |
| --- | --- |
| MGRRIRIQRKGAGGIFKSHNKHRKGASKLRPLDYAERHGYIKGLVKDIIHDPGRGAPLAIIAFRDPYKYKTVKTTVVAAEGMHTGQFIHCGAKAQIQIGNIVPVGTLPEGTTICNVENKSGDRGVIARASGNYATVIAHNPDTKKTRIRLPSGAKKVVQSVNRAMIGLVAGGGRTDKPLLKAGRSYHKYKAKRNSWPRVRGVAMNPVEHPHGGGNHQHIGHPSTVRRDASAGKKVGLIAARRTGRIRGGKPVKFTKEENV | not soluble |
| MTNSKGLRRGTRYMFARDFRKHGVEHLSTYYTQYKRGDLVDIKTNGAFQKGMPFKAYHGRTGRIFNVTRGAVGIIVNKRVRGNILPKRINIRIEHIKPSKCRTDFLNRVKSNDEKRKAAKSAGQPVPALKRLPVAPRGAHTVTTQNNEPELLAPLRFEIVA | not soluble |
